Not every detail of the peptide structures is certain; ends, links or a residue may be inferred. Some entries repeat one wording, which the source may state once for all of them. For part of these data: At least one compound was matched to its structure with a doubt left. Where a SMILES comes first, the peptide text is derived from it. [ ]: non-standard residue; d: D form. 2Thi = N[C@@H](Cc1cccs1)C(=O)O
Tests used:
[1] = molecular target: T1, B2 receptor (Homo sapiens, UniProt P30411); assay: B2 receptor reporter gene assay in B2-NFAT-CHO-K1 cells; assay type: cell-based; settings: for Relative affinity activity: Table 3-1, relative activity calculated from EC50, wild type Lys-BK = 100%; for Affinity activity to B2 receptor (in words): reporter gene assay
T1 construct: expressed in transfected cells; host or cells: CHO-K1
T1 sequence (P30411 1-391): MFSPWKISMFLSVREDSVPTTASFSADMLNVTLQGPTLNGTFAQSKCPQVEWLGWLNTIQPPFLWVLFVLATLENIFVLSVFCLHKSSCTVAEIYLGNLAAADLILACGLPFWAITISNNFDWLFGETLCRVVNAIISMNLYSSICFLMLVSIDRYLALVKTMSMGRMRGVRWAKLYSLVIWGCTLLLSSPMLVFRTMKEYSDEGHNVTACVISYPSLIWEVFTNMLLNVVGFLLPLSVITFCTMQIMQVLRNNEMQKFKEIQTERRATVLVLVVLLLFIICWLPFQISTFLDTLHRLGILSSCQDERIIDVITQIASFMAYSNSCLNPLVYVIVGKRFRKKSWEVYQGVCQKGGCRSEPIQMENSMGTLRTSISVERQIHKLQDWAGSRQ
Excerpt: The pharmacological action of lysyl bradykinin/bradykinin in vivo is achieved by binding to B2 receptors and activating downstream signaling pathways
The cell line B2-NFAT-CHO-K1 stably transfected with B2 receptor reporter gene was constructed based on CHO-K1 host cells and the cell library was constructed. The B2-NFAT-CHO-K1 cell library was used to evaluate the binding activity of lysyl bradykinin/bradykinin or its variants or PEG modified products to B2 receptor in vitro.
Detection methods: The cells were cultured in 96-well plates at 5×10^4 cells/well, 37° C., 5% CO2 for 16-20 hours, and then gradient diluted standard and test solutions were added. After 5 hours, added Bio-Lite luciferase detection reagent and the chemiluminescence intensity was measured. GraphPad was used to make four-parameter equation curve and calculate the relative activity according to the EC50 value.
(§1) In vitro B2-receptor affinity activity and activity of activating downstream signaling pathway of PEG conjugates of lysyl bradykinin and its variants were tested, as in Example 3.

[2] = tested on: p-CREB and p-ERK1/2, B2 receptor downstream signals; assay: Western blot of p-ERK1/2 and p-CREB in CHO-K1 cells overexpressing B2 receptor; assay type: cell-based; settings: for Activation of phosphorylation of downstream ERK1/2 and CREB (qualitative): FIG. 2, 1 μM sample, 5 min, WB
Method: as §1

[3] = tested on: middle cerebral artery occlusion (MCAO) cerebral ischemia-reperfusion model; assay: MCAO cerebral ischemia-reperfusion model: neurological deficit score and cerebral infarct size; assay type: in vivo, SD rats; settings: no PEG modification, or no receptor binding activity; different doses and administration routes
Method: SD rats, male, SPF grade, weighing 270-300 g. The middle cerebral artery occlusion (MCAO) of cerebral ischemia-reperfusion model was prepared by using the intraluminal suture method in rats. Animals were anesthetized with gas (isoflurane), and then fixed them in a supine position. The skin was disinfected, and the right common carotid artery, external carotid artery, and internal carotid artery were separated from the midline incision in the neck. The vagus nerve was gently peeled off, and the external carotid artery was ligated and cut. The common carotid artery was clamped near the proximal end, and an incision was made from the distal end of the ligature line of the external carotid artery. […]
Animals were anesthetized with 10% chloral hydrate, the brain tissue was removed, the olfactory bulbs, cerebellum and lower brainstem were removed, and the bloodstain on brain surface was washed with SPSS. […] The percentage of cerebral infarction area was calculated using the following formula: […]
Except for Table 7-6, the dosage of the other groups was 3 mg/kg (all the dosage was calculated based on peptides). […]
Based on the same model, the effect of PEG conjugate of lysyl bradykinin variant was investigated by both intravenous and subcutaneous injection at dose of […] (the dose was calculated based on polypeptide). […]

Structure (SMILES) | Relative affinity activity [1] [%] | Affinity activity to B2 receptor (in words) [1] | Activation of phosphorylation of downstream ERK1/2 and CREB (qualitative) [2] | Improvement in neurological deficits in animal models (in words) [3] | Phosphorylation of CREB protein compared with LBK group ([2]; FIG. 2d)
N=C(N)NCCC[C@H](NC(=O)[C@H](Cc1ccccc1)NC(=O)[C@@H]1CCCN1C(=O)[C@H](CO)NC(=O)[C@H](Cc1cccs1)NC(=O)CNC(=O)[C@@H]1CCCN1C(=O)[C@@H]1CCCN1C(=O)[C@H](CCCNC(=N)N)NC(=O)[C@H](CCCNC(=N)N)NC(=O)[C@H](CCCNC(=N)N)NC(=O)[C@@H](N)CS)C(=O)O [Lys-BKm16] (H-CRRRPPG[2Thi]SPFR-OH; N-terminus and C-terminus assumed) | 120 | higher activity than the wild type Lys-BK | showed the activity of activating downstream pathways | – | –
NC(N)=NCCC[C@H](NC(=O)[C@H](Cc1ccccc1)NC(=O)[C@@H]1CCCN1C(=O)[C@H](CO)NC(=O)[C@H](Cc1ccccc1)NC(=O)CNC(=O)[C@@H]1CCCN1C(=O)[C@@H]1CCCN1C(=O)[C@@H](N)CCCN=C(N)N)C(=O)O [BK, bradykinin, reference compound] (H-RPPGFSPFR-OH) | – | – | can activate the phosphorylation of downstream ERK1/2 and CREB proteins | showed no improvement in neurological deficits | –
N=C(N)NCCC[C@H](NC(=O)[C@H](Cc1ccccc1)NC(=O)[C@@H]1CCCN1C(=O)[C@H](CO)NC(=O)[C@H](Cc1cccs1)NC(=O)CNC(=O)[C@@H]1CCCN1C(=O)[C@@H]1CCCN1C(=O)[C@H](CCCNC(=N)N)NC(=O)[C@H](CCCCN)NC(=O)[C@H](CCCNC(=N)N)NC(=O)[C@H](Cc1ccccc1)NC(=O)[C@@H]1CCCN1C(=O)[C@H](CO)NC(=O)[C@H](Cc1cccs1)NC(=O)CNC(=O)[C@@H]1CCCN1C(=O)[C@@H]1CCCN1C(=O)[C@H](CCCNC(=N)N)NC(=O)[C@@H](N)CCCCN)C(=O)O [Lys-BKm14] (H-KRPPG[2Thi]SPFRKRPPG[2Thi]SPFR-OH; N-terminus and C-terminus assumed) | 100 | – | showed the activity of activating downstream pathways | – | significantly higher than that in LBK group
N=C(N)NCCC[C@H](NC(=O)[C@H](Cc1ccccc1)NC(=O)[C@@H]1CCCN1C(=O)[C@H](CO)NC(=O)[C@H](Cc1cccs1)NC(=O)CNC(=O)[C@@H]1CCCN1C(=O)[C@@H]1CCCN1C(=O)[C@H](CCCNC(=N)N)NC(=O)[C@H](CCCNC(=N)N)NC(=O)[C@@H](N)CCCCN)C(=O)O [Lys-BKm11] (H-KRRPPG[2Thi]SPFR-OH; N-terminus and C-terminus assumed) | 110 | higher activity than the wild type Lys-BK | showed the activity of activating downstream pathways | showed no improvement in neurological deficits | –

From patent US20250295792A1, “POLYETHYLENE GLYCOL-MODIFIED FORM OF KININ OR DERIVATIVE THEREOF AND PHARMACEUTICAL USE THEREOF” (ZonHon Biopharma Institute, Inc., priority 2022, published 2025)
